The subject of data set [1] is LoVo (human colorectal adenocarcinoma). Put plainly: In vitro cytotoxic activity, CellTiter Glo cell viability, LoVo. The following applies: 72 hr, with goat anti-human IgG Fc antibody, FIG. 5. Type of data set: cell-based. (In general: ATP-based viability assays read luminescence as a measure of living cells.)
In data set [2] the test system is A549 (human lung adenocarcinoma). Put plainly: In vitro cytotoxic activity, CellTiter Glo cell viability, A549. In kind it is cell-based. The following applies: A549, 72 hr, with goat anti-human IgG Fc antibody, FIG. 7.
Data set [3] deals with Caki-2 (human renal cell carcinoma). The experiment in a line: In vitro cytotoxic activity, CellTiter Glo cell viability, Caki-2. Type of data set: cell-based. To be noted: Caki-2, 72 hr, with goat anti-human IgG Fc antibody, FIG. 8.
The subject of data set [4] is all tumor cell lines used for this assay. Put plainly: In vitro cytotoxic activity, CellTiter Glo cell viability, all 12 tumor cell lines. Type of data set: cell-based. The following applies: 72 hr, with goat anti-human IgG Fc antibody, FIGS. 1-12.
Data set [5] deals with Human melanoma cell line A375. The experiment in a line: A375 xenograft model. In kind it is in vivo, nude mice. The following applies: 1 mg/kg ADC vs 3 mg/kg hB273 iv Days 14, 21, 28, FIG. 13.
Data set [6] relates to Human ovarian carcinoma cell line A2780. Put plainly: A2780 xenograft model. Type of data set: in vivo, nude mice. The following applies: 3 mg/kg iv Days 11, 18, 25, FIG. 14.
In data set [7] the test system is Human renal cell carcinoma cell line Caki-2. Put plainly: Caki-2 xenograft model. Type of data set: in vivo, nude mice. To be noted: 3 mg/kg iv Days 18, 25, 32, FIG. 15.
Data set [8] deals with Human colorectal adenocarcinoma cell line HCT-116. Put plainly: HCT 116 xenograft model. Type of data set: in vivo, nude mice. To be noted: 3 mg/kg iv Days 11, 18, 25, FIG. 16.
The subject of data set [9] is Human colorectal adenocarcinoma cell line HCT-15. Put plainly: HCT-15 xenograft model. Type of data set: in vivo, nude mice. To be noted: 3 mg/kg iv Days 9, 16, 23, FIG. 17.
For data set [10], the system named is Human colorectal adenocarcinoma cell line LoVo. Put plainly: LoVo xenograft model. Type of data set: in vivo, nude mice. The following applies: 3 mg/kg iv Days 10, 17, 24, FIG. 18.
The test system of data set [11] is Human lung carcinoma cell line NCI-H1299. Put plainly: NCI-H1299 xenograft model. Type of data set: in vivo, nude mice. The following applies: 3 mg/kg iv Days 14, 21, 28, FIG. 19.
Data set [12] has as its system Human lung adenocarcinoma cell line NCI-H1975. Put plainly: NCI-H1975 xenograft model. In kind it is in vivo, nude mice. The following applies: 3 mg/kg iv Days 13, 20, 27, FIG. 20.
Data set [13] has as its system Human lung adenocarcinoma cell line NCI-H2122. Put plainly: NCI-H2122 xenograft model. Type of data set: in vivo, nude mice. The following applies: 1 mg/kg iv Days 15, 22, 29, FIG. 21.
The subject of data set [14] is Human ovarian adenocarcinoma cell line SK-OV-3. Put plainly: SK-OV-3 xenograft model. In kind it is in vivo, nude mice. To be noted: 3 mg/kg iv Days 14, 21, 28, FIG. 22.
The subject of data set [15] is Human glioblastoma cell line U-87 MG. The experiment in a line: U-87 MG xenograft model. In kind it is in vivo, nude mice. The following applies: 3 mg/kg iv Days 7, 14, 21, FIG. 23.

Here are results for two molecules from patent US20130280282A1, “DR5 LIGAND DRUG CONJUGATES” (Daiichi Sankyo Co., Ltd., priority 2012, published 2013).

B1: hB273-vc-MMAE: antibody drug conjugate of hB273 conjugated with mc-vc-MMAE, average drug loading about 3.5 to 4.5 (conjugate)
heavy: EVQLVQSGAEVKKPGASVKVSCKASGYSFIGYFMNWMKQSPGMSLEWIGRFNPYNEDTFYNQKFKGKATLTVDKSTSTAYMELSSLRSEDTAVYFCARSAYYFDSGGYFDYWGQGTLVTVSSASTKGPSVFPLAPSSKSTSGGTAALGCLVKDYFPEPVTVSWNSGALTSGVHTFPAVLQSSGLYSLSSVVTVPSSSLGTQTYICNVNHKPSNTKVDKRV[sequence of human IgG1 Fc omitted]
light: DIVMTQSPLSLPVTPGEPASISCRSSQSLVHSNKNTYLHWYLQKPGQSPQLLIYKVSNRFSGVPDRFSGSGSGTDFTLKISRVEAEDVGVYYCSQSTHVPWTFGPGTKVEIKRTVAAPSVFIFPPSDEQLKSGTASVVCLLNNFYPREAKVQWKVDNALQSGNSQESVTEQDSKDSTYSLSSTLTLSKADYEKHKVYACEVTHQGLSSPVTKSFNRGEC
Turning to B1, the “cytotoxic activity compared with hB273” value in [1], in data set [2] and in data set [3] was “more potent cytotoxic activity than hB273” each time. Moreover, the “cytotoxic activity compared with hTRA-8-mcMMAF” value in [4] is on record as “more potent cytotoxic activity than hTRA-8-mcMMAF”. For the same molecule, the “anti-tumor efficacy compared with hB273” value in data set [5], in data set [6], in data set [8], in data set [10], in data set [11] and in data set [12] was “more potent anti-tumor efficacy than hB273” in each case. Moreover, the “anti-tumor efficacy compared with hB273” value in [14] and in data set [15] was “more potent anti-tumor efficacy than hB273” throughout. Further, the “anti-tumor efficacy compared with hTRA-8-mcMMAF” value in [6], in data set [8], in data set [10], in data set [11], in [12] and in [13] was “more potent anti-tumor efficacy than hTRA-8-mcMMAF” each time. The “anti-tumor efficacy compared with hTRA-8-mcMMAF” value in data set [14] and in [15] was “more potent anti-tumor efficacy than hTRA-8-mcMMAF” in each case. Moreover, the anti-tumor activities entry in data set [7] is reported as “none”. Moreover, the “anti-tumor activity compared with hB273” value in [9] and in [13] was “less effective than that of hB273” each time.

B2: hB273: Humanized anti-DR5 antibody B273, heavy chain SEQ ID NO:9 (or residues 1-451), light chain SEQ ID NO:10 (antibody)
heavy: B1 heavy
light: B1 light
modifications: synthetic anti-human death receptor 5 (DR5, TRAIL-R2) monoclonal antibody hB273 heavy chain; synthetic anti-human death receptor 5 (DR5, TRAIL-R2) monoclonal antibody hB273 light chain
As for B2, the anti-tumor activities entry in data set [7] is listed as “none”.
